Read counts are not given, so values of variants with three or more changes are uncertain.

The values that follow come from the RNAGym collection of RNA variant scans (doi:10.7554/elife.90254).

Sequences and labels used below:
B1: LINE1-full (parent)
chain: UACGUAGGUGGUUUUCCCCUGAUAGUGCUAAGGGGGCCUGGAAGUUUGGACUGGGCAGAGCUCAACACAGCGUGGCAAAGUGGCUGUGGCUAGACUGCCUCUCUGGAUUCCUCGUCACUCAGCAGGGCAUCUCUGAGAGAAAUGCC

The variants in the data set derive from B1. Nature of the data set: self-cleavage, relative activity (ratio to wild type); higher = more cleavage; in vitro, sequencing; the parent is a self-cleaving ribozyme.
As to A22G C28U U115A, the self-cleavage amounted to 0.94. Take G21A U26A A121G: the self-cleavage came to 1.31.

Regarding U20C G32A U39C G55A U104C, the self-cleavage was 0.84.

For U20G A31U U112C A124G U132C A138G, the self-cleavage came out at 0. Consider U20A A59G U100C A124C, for which the self-cleavage turned out to be 0.37. Turning to U20A U29C A65G A138G, the self-cleavage was 0. For the variant A22G A31U U62C U73A U96A U109C U112C, the self-cleavage amounted to 0.

As for A22G A78U U130A, the self-cleavage stood at 2.58. Take U20A G35A U39A U85A U91C A107G: the self-cleavage was determined as 0.06.

With A22G A42G U115C, the self-cleavage turned out to be 2.76.

Turning to U20A G35U A69G A129G, the self-cleavage is 1.48. In the case of U20C U26A U81C A107G, the self-cleavage was found to be 0.61.

On to U20A U73A U130A, for which the self-cleavage is 0.75. On to A22G A42U G49A U96C, for which the self-cleavage amounted to 0.07. As for A22G A31G A50G G74A U91A, the self-cleavage stood at 0.37. As for U20C U45C U134C, the self-cleavage came to 1.23. As for A22G A31U U62C U85C G122A, the self-cleavage worked out at 0.

On to G21A U45G A59U A78G U108C A138G, for which the self-cleavage came out at 0.73.

As for U20C A50G A65G U91C, the self-cleavage came to 0.

As to U20A A94G A141U, the self-cleavage worked out at 0.56.

Consider U20C U39C A92G U112C, for which the self-cleavage came to 0.

With U20C U85C U134C, the self-cleavage was found to be 0.16. The result for U20A U45G C113A reads 1.07. Consider U20A A24U U45C C71A A138G, for which the self-cleavage stood at 0.34. For U20C A22G U45C, the self-cleavage stood at 0.61. As to U20C A79G A138G A141G, the self-cleavage turned out to be 1.56. Regarding U20C U46A U47A, the self-cleavage turned out to be 1.46.

For U20A A42U A138G, the self-cleavage came to 0.95.

On to U20C U46C A67C, for which the self-cleavage came out at 0. For U20C A121G C133A, the self-cleavage is 1.85. As for U20C A64G A78G, the self-cleavage amounted to 0.23. In the case of G21U C37U U52C U143C, the self-cleavage was determined as 0.81. The result for U20C U26C G75U U143A reads 0.46; that for U20A U39C U45C, 2; that for U20A U26C A57U U130A A140G, 0. As to U20G A77G A92U, the self-cleavage amounted to 1.88. Take U20A A22U A24G C61A A64G A117G A141G A142G: the self-cleavage came to 0.15. U20C U100C U112C: the self-cleavage was 1.97. Take U20A A79U U91C A129C: the self-cleavage stood at 0.89. On to G21A A69G A94U U115A C146U, for which the self-cleavage was 0.23. For U20A U29C U115C A136G, the self-cleavage came out at 2.37.

Regarding U20C U45A A77U, the self-cleavage was 0.56. For the variant U20A U85C U119A, the self-cleavage was 0.28. The result for U20A U47C U96A reads 0.04; that for U20C A43U A65G A69U, 0.73; that for U20A A30U A79U U108C A121G, 0. The result for U20A U26A U96A C113A A142G reads 0; that for U20C A42U G105A, 1.33.

As to A22C A31U A141G, the self-cleavage amounted to 0.92. Regarding U20A U26C A69U G89A A92G A94U U132C, the self-cleavage was found to be 0.11.

For the variant U20C U108C A136U, the self-cleavage was 1.79. G21A A30U A79U U100C: the self-cleavage amounted to 1.27. For A22G A43U U143C, the self-cleavage turned out to be 1.41. With U20C U46C U52C A57U, the self-cleavage was 0.49.

Consider A22G A67G G80U U102C, for which the self-cleavage is 0.55. Turning to U20A A30U G122A, the self-cleavage amounted to 1.29.

Consider U20C C71U U104A A121G, for which the self-cleavage was 0.27. Take U20C A31G U62A C63U A77U A140G: the self-cleavage is 0. The result for U20A U23C A24G A30G G55C A78U reads 1.77; that for U20C U29C A78U, 1.31; that for G21A A59G U104C A117U A124G A136G, 0. For the variant G21A A59G U96G, the self-cleavage came to 0.07. Take U20C G25A A50G A67G: the self-cleavage is 0.66. For the variant U20G A65G U132C, the self-cleavage was 0.

Take A22G C131A A140U: the self-cleavage came to 1.64. With U20A U39C A136G, the self-cleavage came out at 1.41.

In the case of A22G A43G U81A, the self-cleavage amounted to 0.9. The result for U20C C38U U85C reads 0.2. As for U20C A124C C128U U143C, the figure is 1.85; as for U20C A64U U115C, 0.52; as for A22G A117U U143C, 1.06.

For the variant A22G A50G A64U A65C, the self-cleavage is 0. Regarding A22G A107G A141G, the self-cleavage is 1.59. Regarding U20A A59G A78U, the self-cleavage stood at 0.08. The result for U20C U130C A140G reads 1.6; that for A22G A77G A79G A142G, 0.47. The result for A22C G60A G83C U102C A117C reads 0.03; that for G21A A65G C68A U96C U134C, 0.05; that for A22G A78U A107C A142G, 2.86. As for U20C C103U U119C, the figure is 1.61; as for A22G A42G U130C, 0.56. For the variant U20C A65U U85C, the self-cleavage worked out at 0.04. U20A A24U A50U A67G: the self-cleavage was found to be 0.35. The result for G21A U102C A136U reads 1.02; that for U20C A30G A67U U104A, 0; that for U20C A117U A141G, 1.5. The result for U20C G25A A42G reads 1.31. With U20A U87C U108C, the self-cleavage was found to be 0.

For A22G C51U A117G U130C, the self-cleavage came to 1.75. For the variant U20C A22U G144A, the self-cleavage was found to be 0.72. In the case of A22G C28U G32U A57U A65G, the self-cleavage was determined as 0.09.

In the case of U20C C68U U87C U96A, the self-cleavage was determined as 0.04. In the case of U20A U29A A42G, the self-cleavage came out at 1.08.

For the variant U20A U46C U85C U132C U134C, the self-cleavage was found to be 0.16. Regarding U20C A64U A69U C90U U109C, the self-cleavage is 0.04. The result for U20C G27U A79U C131U reads 1.63; that for U20A U47C G53A A107U A117G A129G, 2.67; that for U20C U29A U45G A140G, 0.46.

In the case of U20C G88A A121U U132C U143C, the self-cleavage was determined as 0.1. U20C A64G A77U A138U: the self-cleavage stood at 0.35. As to U20G U73A A142C, the self-cleavage was determined as 1.13.

On to U20A A30G U46A A57G, for which the self-cleavage worked out at 1.08. In the case of U20A A42U A77G A138G, the self-cleavage stood at 2.27. With U20C U47A U62C A138G U143C, the self-cleavage is 0.23.

With U20A A42G U130A, the self-cleavage stood at 0.4.

Regarding U20C U29A A65G, the self-cleavage was 0.16. As for U20C U52G A136G, the figure is 2.78.

On to U20A A22U U39A A69G U108C, for which the self-cleavage is 0.

Regarding G21A A69U U143C, the self-cleavage came to 0.04.

For A22G A30U U85C, the self-cleavage was 0.75. In the case of U20A A43G U112C A129U, the self-cleavage is 1.99. For the variant U20C U45C C95U U143A, the self-cleavage amounted to 0.17.

Regarding A22G A57G U100C, the self-cleavage was 0.61. As to A22G A67G A92G, the self-cleavage was 0. Take U20A U87C U109A: the self-cleavage came out at 0.06. Take A22G A42G U132C: the self-cleavage was determined as 1.45. U20C U23C A64U A138G: the self-cleavage was determined as 0.8. As to U20A U26A A141G, the self-cleavage is 0.96.

In the case of U20C U62A G125U, the self-cleavage was found to be 0.02.

With U20G A31U A94U, the self-cleavage came to 0.12.

Take A22G A92G U119C: the self-cleavage was 0.31. On to U20C U91C A141G, for which the self-cleavage is 1.02. Turning to U20C A50G A59G C116A, the self-cleavage was 0.

Regarding G21U U39A C146U, the self-cleavage was 0.74.

As to U20C G41A U132G A142G, the self-cleavage is 2.06.

With U20C A77U A142G, the self-cleavage stood at 0.82.

For U20C A22G U47A A129G, the self-cleavage was 0.41.

Consider U20A G40A A136G, for which the self-cleavage was found to be 1.52. With U20C A69G U109A, the self-cleavage was 0.79. With U20C G35A A42G U91C, the self-cleavage was 0.43. As for A22C A42G A67U C128U, the figure is 0.1; as for U20G A67G U109C, 1.02; as for A22C U29A A94U A107C, 0.64. For the variant U20C A43G A79U U100C U134A, the self-cleavage came out at 2.8. Regarding A22G A67U A78G C90U U108C, the self-cleavage is 0.04. On to A22G A43G U85C, for which the self-cleavage turned out to be 0. U20C G49A U108C: the self-cleavage stood at 1.12.

In the case of U20G U29C A64U U87A U119C A124G, the self-cleavage is 0.38.

Regarding G21U C38U A79G U91C, the self-cleavage was 0.6.

U20A A43G U112A U115C: the self-cleavage stood at 1.1. On to U20C U81A U104A C133A, for which the self-cleavage came out at 1.21.

Consider U20C G34A G48A U87A, for which the self-cleavage stood at 0.06. With U20C A77U A121U, the self-cleavage was determined as 1.91.

Regarding U20C U47C C51U, the self-cleavage is 1.57. The result for A22C A107G A140G reads 2.69. In the case of U20C C71U A124G, the self-cleavage worked out at 0.55. Consider U20C U47C U73A, for which the self-cleavage stood at 2.36.

Turning to U20G U96C U109C, the self-cleavage is 0. Consider A22G A50G A94G, for which the self-cleavage is 0. For the variant A22G G25A C66U, the self-cleavage was found to be 0.14. As for U20C A64G A107U C123U A138G, the figure is 0.31; as for U20A U52C A141G, 0.97. On to U20C A57G A138G A141G, for which the self-cleavage worked out at 1.34. Regarding A22G A30G C56U U62C, the self-cleavage was 0.12.

On to U20C A50G A57U A79G, for which the self-cleavage turned out to be 0.34. As for U20A U52C A107G U108G A140G, the self-cleavage was 0. Turning to U20C U46C U100C, the self-cleavage was 0.93.

A22G A65U U143G: the self-cleavage turned out to be 0.36.

As for U20C U73A A124G, the self-cleavage worked out at 1.5.

For U20C A24G A79C U115A, the self-cleavage is 2.12. On to U20C A64G G72U, for which the self-cleavage is 0.16. On to U20C U85C G114U, for which the self-cleavage was found to be 0.18. For the variant U20C U96C A124U U134G, the self-cleavage came to 0.11. Turning to U20C U104C A124G, the self-cleavage came out at 2.3. With U20C U29C U109C, the self-cleavage came out at 1.78. As to U20C A79G U132C, the self-cleavage worked out at 2.55. The result for A22G C113U A142G reads 0.82.
